For four compounds, GI50 and TGI results are on record in PubChem BioAssay (NCI).

What all share (assay): growth of human tumour cells (NCI), 48 h
Experiment [1] relates to A549 NSCLC.
In experiment [2] the test system is ACHN renal.
The test system of experiment [3] is BT-549 breast.
For experiment [4], the system named is CAKI-1 renal.
Experiment [5] relates to COLO 205 colon.
Experiment [6] deals with EKVX NSCLC.
Experiment [7] concerns HCC-2998 colon.
For experiment [8], the system named is HCT-116 colon.
Experiment [9] concerns HCT-15 colon.
In experiment [10] the test system is HOP-62 NSCLC.
For experiment [11], the system named is HOP-92 NSCLC.
The test system of experiment [12] is HS 578T breast.
The subject of experiment [13] is HT29 colon.
Experiment [14] has as its system IGROV1 ovarian.
Experiment [15] deals with KM12 colon.
Experiment [16] has as its system MALME-3M melanoma.
Experiment [17] deals with MCF7 breast.
The test system of experiment [18] is MDA-MB-231 breast.
For experiment [19], the system named is MOLT-4 leukemia.
Experiment [20] concerns NCI-H23 lung.
Experiment [21] deals with NCI-H460 lung.
Experiment [22] relates to NCI/ADR-RES ovarian.
The test system of experiment [23] is OVCAR-4 ovarian.
Experiment [24] concerns OVCAR-5 ovarian.
The subject of experiment [25] is OVCAR-8 ovarian.
The test system of experiment [26] is PC-3 prostate.
Experiment [27] relates to RPMI-8226 leukemia.
In experiment [28] the test system is RXF 393 renal.
Experiment [29] deals with SF-268 CNS.
Experiment [30] deals with SF-539 CNS.
The subject of experiment [31] is SK-MEL-2 melanoma.
Experiment [32] deals with SK-MEL-28 melanoma.
Experiment [33] deals with SK-MEL-5 melanoma.
Experiment [34] concerns SK-OV-3 ovarian.
In experiment [35] the test system is SN12C renal.
Experiment [36] deals with SNB-19 CNS.
Experiment [37] deals with SNB-75 CNS.
Experiment [38] relates to SR leukemia.
The test system of experiment [39] is T-47D breast.
Experiment [40] has as its system UACC-257 melanoma.
The test system of experiment [41] is UACC-62 melanoma.
For experiment [42], the system named is UO-31 renal.
Experiment [43] relates to DU-145 prostate.
Experiment [44] deals with HL-60(TB) leukemia.

SMILES strings stand for the structures.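 Grown in 96-well plates, cells were treated for 48 hours with each compound at five concentrations. Insufficient inhibition: endpoint recorded as highest concentration tested. GI50: concentration for 50% inhibition of growth.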 Certain results were filed several times, with different values. The other results are left out here. The source may hold further records. For some of these results: The tests behind the records often covered other concentration ranges, which the source does not state; a value can be the end of its range. For some of these results: The values listed for one entry repeat one measurement (runs, samples, wells, individuals or studies). A tag in brackets gives the origin of a value. Letters count within one entry.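 At the TGI there is no net growth.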

Consider `C/C=C/C1=CN2C(=O)c3cc(OC4OC(C)C(NC)C(C)(O)C4O)c(C)c(O)c3N=C[C@@H]2C1` (some centres undefined), for which the GI50 is 207 nM and < 10 nM in experiment [1]; 187 nM and < 10 nM in [3]; 198 nM and < 10 nM in [5]; 151 nM and < 10 nM in experiment [6]; 169 nM and < 10 nM in [7]; 205 nM and < 10 nM in [8]. Moreover, the GI50 is 269 nM and < 10 nM in [9]; 152 nM and < 10 nM in experiment [10]; 123 nM and < 10 nM in [11]; 156 nM and < 10 nM in experiment [12]; 252 nM and < 10 nM in experiment [13]; 132 nM and < 10 nM in [14]. Further, the GI50 in experiment [15] was 165 nM and < 10 nM; in experiment [16], 169 nM and < 10 nM; in experiment [17], 131 nM and < 10 nM; in experiment [18], 279 nM and < 10 nM; in [22] it was 269 nM and < 10 nM; in experiment [23] it was 299 nM and < 10 nM. Further, the GI50 in experiment [24] is 333 nM and < 10 nM; in experiment [25] it was 194 nM and < 10 nM; in experiment [26] it was 169 nM and < 10 nM; in experiment [28], 125 nM and < 10 nM; in experiment [31], 216 nM and < 10 nM; in [32], 185 nM and < 10 nM. Further, the GI50 in experiment [33] was 155 nM and < 10 nM; in experiment [34], 323 nM and < 10 nM; in [35] it was 178 nM and < 10 nM; in [36], 114 nM and < 10 nM; in [37], 150 nM and < 10 nM; in [39], 237 nM and < 10 nM. Further, the GI50 in experiment [40] was 162 nM and < 10 nM. The TGI in experiment [2] was 813 nM and < 10 nM; in experiment [3], 697 nM and < 10 nM; in [4], 112 nM and > 100 µM; in experiment [5] it was 555 nM and < 10 nM; in experiment [6], 550 nM and 45.4 µM; in experiment [7], 429 nM and < 10 nM. Besides, the TGI in [10] is 640 nM and < 10 nM; in experiment [11] it was 749 nM and < 10 nM; in experiment [12], 465 nM and 22 µM; in experiment [14] it was 783 nM and 25.1 µM; in experiment [15] it was 582 nM and 26.4 nM; in experiment [16], 512 nM and < 10 nM. For the same compound, the TGI is 967 nM and 64.1 nM in [18]; 386 nM and 31.1 µM in experiment [19]; 398 nM and < 10 nM in [20]; 475 nM and 11.7 µM in [21]; 438 nM and 15.4 µM in [27]; 293 nM and < 10 nM in [28]. For the same compound, the TGI in [29] was 294 nM and 15.1 nM; in [30], 306 nM and < 10 nM; in experiment [31], 457 nM and < 10 nM; in [32] it was 397 nM and < 10 nM; in [33], 384 nM and < 10 nM; in experiment [36], 937 nM and 12.3 µM. Also, the TGI in [37] is 335 nM and < 10 nM; in [38] it was 105 nM and 12.2 µM; in experiment [40], 575 nM and < 10 nM; in experiment [41], 250 nM and < 10 nM; in experiment [42] it was 383 nM and 35.5 nM.
For the compound `CCCCCCNCCCNc1c2ccccc2nc2cccc([N+](=O)[O-])c12`, the TGI in experiment [43] is 35.4 nM and 1.18 µM; in experiment [44], 52.6 nM and 58.1 µM; in experiment [27], 9.05 nM and 405 nM; in [36] it was 1.32 µM and 118 nM; in [38] it was 3.76 nM and 13 µM.
For the compound `CNC(=O)CN1CCC(Oc2cc3c(Nc4cccc(Cl)c4F)ncnc3cc2OC)CC1`, the TGI in experiment [6] is 725 nM [sample A, mean of 2 tests] and > 10 µM [sample B, mean of 2 tests].
Consider `COc1ccc(C2c3c(-c4ccccc4)nn(-c4ccccc4)c3Oc3ncn4nc(CC#N)nc4c32)cc1OC` (centres undefined), for which the GI50 in experiment [4] was > 100 µM [sample A, 1 test] and 3.26 µM [sample B, mean of 2 tests]; in [43], > 100 µM [sample A, 1 test] and 3.59 µM [sample B, mean of 2 tests]; in experiment [21], > 100 µM [sample A, 1 test] and 9.3 µM [sample B, mean of 2 tests]; in experiment [24] it was > 100 µM [sample A, 1 test] and 5.32 µM [sample B, mean of 2 tests]; in [31] it was > 100 µM [sample A, 1 test] and 5.24 µM [sample B, mean of 2 tests]; in experiment [32] it was > 100 µM [sample A, 1 test] and 4.92 µM [sample B, mean of 2 tests]. Also, the GI50 was > 100 µM [sample A, 1 test] and 3.81 µM [sample B, mean of 2 tests] in experiment [34]; > 100 µM [sample A, 1 test] and 5.78 µM [sample B, mean of 2 tests] in experiment [40]. Moreover, the TGI in experiment [10] is > 100 µM [sample A, 1 test] and 7.8 µM [sample B, mean of 2 tests]; in experiment [11], > 100 µM [sample A, 1 test] and 6.81 µM [sample B, 1 test]; in experiment [16], 81.5 µM [sample A, 1 test] and 6.45 µM [sample B, 1 test]; in experiment [28], 93.5 µM [sample A, 1 test] and 9.1 µM [sample B, 1 test]; in [41] it was > 100 µM [sample A, 1 test] and 7.22 µM [sample B, mean of 2 tests].
